# Inconclusive results, whose numbers are uncertain, are shown with a selection of clear calls. For some assays here: Potencies of inconclusive entries are doubtful fits and often do not repeat. Calls of active or inactive are those of the source. Unless noted, calls follow the shape of the dose curve; as a rule, active = well fitted curve in either direction with a large enough effect (not every such curve was filed as active); inconclusive = small, poorly fitted or top-dose-only effect, or another doubt; inactive = flat fitted curve, though single readings scatter.
# How the values were obtained:
# [1] = NFAT Signaling Pathway (AID 444); conditions: Jurkat NFAT-bla M1, carbachol, beta-lactamase ratio, 5 h; at 17.2 µM (top of the series) unless noted;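 also: carbachol stimulus at about its EC50 of 1 µM final; % is scaled to controls: 0 for no effect and ±100 for the full control effect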
# How it was run: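 Read-out: CCF4 FRET ratio (460 nm/530 nm) after 1 h RT dye loading, used for %activity and AC50 from titration series. Cells: Jurkat NFAT-β-lactamase/M1 line, treated with compound plus 1 uM carbachol for 5 h, 37 °C.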
# [2] = target: Cytochrome P450 2C9 (Homo sapiens) (UniProt P11712); test: qHTS Assay for Inhibitors and Substrates of Cytochrome P450 2C9 (AID 883; active = well fitted curve in the direction sought with a large enough effect; inconclusive = small, poorly fitted or top-dose-only effect, or another doubt; inactive = no such curve, though single readings can be large; an effect the other way counts as inactive or inconclusive; also: nearly all actives have a fitted effect of over 60% in size; also: potency is read from the fitted curve at half-maximal effect; as to activity change, negative = inhibition: % is scaled to controls: 0 for no effect and ±100 for the full control effect); conditions: recombinant CYP2C9, luciferin-H luminescence, 60 min; activity change, negative = inhibition: at 57.1 µM (top of the series)
# How it was run: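 Turnover of Luciferin-H (100uM, KM) by 10nM human CYP2C9 was measured over 60 min at 37C with NADPH regeneration; inhibitors and some substrates reduce luminescence. Data normalized to sulphaphenazole 57uM.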
# [3] = target: Cytochrome P450 3A4 (Homo sapiens) (UniProt P08684); test: qHTS Assay for Inhibitors and Substrates of Cytochrome P450 3A4 (AID 884; active = well fitted curve in the direction sought with a large enough effect; inconclusive = small, poorly fitted or top-dose-only effect, or another doubt; inactive = no such curve, though single readings can be large; an effect the other way counts as inactive or inconclusive; also: potency is read from the fitted curve at half-maximal effect; nearly all actives have a fitted effect of over 50% in size)
# How it was run: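 20 nM human CYP3A4 with 25 uM Luciferin-PPXE (at KM) in 200 mM KPO4, preincubated 10 min with compound; NADPH regeneration started a 60 min RT reaction. Luciferin detected by luminescence, normalized to 57 uM ketoconazole as full inhibition.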
# [4] = S16 Schwann cell PMP22 intronic element firefly luciferase assay (AID 624032; active = well fitted curve in the direction sought with a large enough effect; inconclusive = small, poorly fitted or top-dose-only effect, or another doubt; inactive = no such curve, though single readings can be large; an effect the other way counts as inactive or inconclusive; also: potency is read from the fitted curve at half-maximal effect; nearly all actives have a fitted effect of over 30% in size)
# How it was run: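 Luciferase reporter of PMP22 intronic-element expression in stably transfected S16 rat Schwann cells, read by ONE-Glo luminescence after 24 h compound exposure at 37 C. Activity scaled between DMSO (0%) and positive-control PTC124; concentration-effect curves quality-classified.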
# [5] = target: 3',5'-cyclic-AMP phosphodiesterase 4B (Homo sapiens) (UniProt Q07343); test: qHTS Assay for Inhibitors of PDE-IV (AID 607; active = well fitted activation curve with a large enough effect in the main read-out, with a control signal flat, not every such curve was filed as active; inconclusive = small, poorly fitted or top-dose-only effect, or effect the other way, or a change in a side signal; also: potency is read from the fitted curve at half-maximal effect; as to activation (PDE inhibition): % of control where 0% means no effect); conditions: HEK293 ACTOne CNG channel cells, membrane potential fluorescence; activation (PDE inhibition): at 22.9 µM (top of the series)
# How it was run: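 The readout is membrane depolarisation from a cAMP-sensing CNG channel, detected with a potential dye at ex 535/em 590. Cells were HEK293-derived (endogenous PDE-IV) at 1000 cells/well, titrated up to 22.9 uM final.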
# [6] = qHTS Assay for Identification of Small Molecule Agonists for Hypoxia Response Element Signaling Pathway (AID 914; active = well fitted activation curve with a large enough effect in the signal ratio, with a control signal flat, not every such curve was filed as active; inconclusive = small, poorly fitted or top-dose-only effect, or effect the other way, or a change in a side signal; the % refers to the signal ratio; also: potency is read from the fitted curve at half-maximal effect; as to activation: top concentration of the series differs between compounds; % of control where 0% means no effect); conditions: ME-180 (cervical carcinoma) HRE-bla reporter, beta-lactamase ratio, CoCl2, 17 h; activation: hits give high values
# How it was run: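 Reporter activity (beta-lactamase, CCF4 460nm/530nm ratio) in HRE-bla ME-180 cells is recorded after 17 h compound exposure with EC50 CoCl2 at 37 degrees Celsius. AC50 values come from titration data.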
# [7] = target: ATPase family AAA domain-containing protein 5 (Homo sapiens) (UniProt Q96QE3); test: qHTS screen for small molecules that inhibit ELG1-dependent DNA repair in human embryonic kidney (HEK293T) cells expressing luciferase-tagged ELG1: Hit Confirmation using MMS Stimulated ELG1 (AID 624249; active = well fitted curve in the direction sought with a large enough effect; inconclusive = small, poorly fitted or top-dose-only effect, or another doubt; inactive = no such curve, though single readings can be large; an effect the other way counts as inactive or inconclusive; also: potency is read from the fitted curve at half-maximal effect; nearly all actives have a fitted effect of over 60% in size)
# How it was run: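 Seed HEK293T ELG1-luc cells (2,000/well). Add compounds at ~5 h, then MMS to 10 µM final. Incubate 16 h. Measure luciferase using Amplight.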
# [8] = target: Cytochrome P450 2C19 (Homo sapiens) (UniProt P33261); test: qHTS Assay for Inhibitors and Substrates of Cytochrome P450 2C19 (AID 899; active = well fitted curve in the direction sought with a large enough effect; inconclusive = small, poorly fitted or top-dose-only effect, or another doubt; inactive = no such curve, though single readings can be large; an effect the other way counts as inactive or inconclusive; also: potency is read from the fitted curve at half-maximal effect; nearly all actives have a fitted effect of over 60% in size)
# How it was run: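 Reactions contain 5nM enzyme, 10uM Luciferin-H EGE (KM) and 50mM KPO4; compound preincubates 10 min at 37C, NADPH regeneration starts turnover for 60 min. Luminescence after detection reagent gives activity.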
# [9] = qHTS Assay for Identification of Small Molecule Antagonists for NFkB Signaling Pathway (AID 895; active = well fitted inhibition curve with a large enough effect in the signal ratio, with a control signal flat, not every such curve was filed as active; inconclusive = small, poorly fitted or top-dose-only effect, or effect the other way, or a change in a side signal; the % refers to the signal ratio; also: potency is read from the fitted curve at half-maximal effect); conditions: NFkB beta-lactamase reporter cells, FRET ratio 460/530, stimulated with 10 pM TNF alpha; activity change, negative = inhibition: at 38.3 µM (top of the series)
# How it was run: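 Beta-lactamase reporter read-out (460 and 530 nm emission ratio, 405 nm excitation, 2 hrs substrate loading RT) after 5 hr stimulation with 10 pM TNF alpha in compound-treated NFkB-bla ME-180 cells in low-serum medium.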
# [10] = qHTS Assay for Identification of Small Molecule Agonists for Thrombopoietin (TPO) Signaling Pathway (AID 917; active = well fitted curve in the direction sought with a large enough effect; inconclusive = small, poorly fitted or top-dose-only effect, or another doubt; inactive = no such curve, though single readings can be large; an effect the other way counts as inactive or inconclusive; also: % is scaled to controls: 0 for no effect and ±100 for the full control effect); conditions: TPO signaling pathway reporter cells, agonist qHTS, stimulated with TPO at its EC50; activity, positive = activation: at 38.5 µM (top of the series)
# How it was run: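 IL-3-dependent murine pro-B Ba/F3 cells, stably transfected with human TPO receptor and GpIIb-promoter luciferase, are incubated 24 hrs at 37 C with test compound and 26 pM TPO; luciferase signal is read after 10 min at room temperature.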
# [11] = target: Muscarinic acetylcholine receptor M1 (Rattus norvegicus) (UniProt P08482); test: qHTS Assay for Antagonists of Acetylcholine Muscarinic M1 Receptor: Measurement of IP-One Response (AID 944; active = well fitted curve in the direction sought with a large enough effect; inconclusive = small, poorly fitted or top-dose-only effect, or another doubt; inactive = no such curve, though single readings can be large; an effect the other way counts as inactive or inconclusive; also: nearly all actives have a fitted effect of over 75% in size)
# [12] = target: Bifunctional 3'-5' exonuclease/ATP-dependent helicase WRN (Homo sapiens) (UniProt Q14191); test: qHTS for Inhibitors of WRN Helicase: Confirmatory Assay for Cherry-picked Compounds. (AID 720497; active = well fitted curve in the direction sought with a large enough effect; inconclusive = small, poorly fitted or top-dose-only effect, or another doubt; inactive = no such curve, though single readings can be large; an effect the other way counts as inactive or inconclusive; also: nearly all actives have a fitted effect of over 65% in size)
# How it was run: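 Compound and 20 nM WRN incubated 15 min, RT. Forked duplex (100 nM) plus ATP (2 mM) added. Fluorescence monitored kinetically and normalized to controls.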
# Tags tell the direction and shape of the fitted curve or compound fluorescence and quenching.
# Chain of UniProt Q07343 (Q07343 whole entry, looked up): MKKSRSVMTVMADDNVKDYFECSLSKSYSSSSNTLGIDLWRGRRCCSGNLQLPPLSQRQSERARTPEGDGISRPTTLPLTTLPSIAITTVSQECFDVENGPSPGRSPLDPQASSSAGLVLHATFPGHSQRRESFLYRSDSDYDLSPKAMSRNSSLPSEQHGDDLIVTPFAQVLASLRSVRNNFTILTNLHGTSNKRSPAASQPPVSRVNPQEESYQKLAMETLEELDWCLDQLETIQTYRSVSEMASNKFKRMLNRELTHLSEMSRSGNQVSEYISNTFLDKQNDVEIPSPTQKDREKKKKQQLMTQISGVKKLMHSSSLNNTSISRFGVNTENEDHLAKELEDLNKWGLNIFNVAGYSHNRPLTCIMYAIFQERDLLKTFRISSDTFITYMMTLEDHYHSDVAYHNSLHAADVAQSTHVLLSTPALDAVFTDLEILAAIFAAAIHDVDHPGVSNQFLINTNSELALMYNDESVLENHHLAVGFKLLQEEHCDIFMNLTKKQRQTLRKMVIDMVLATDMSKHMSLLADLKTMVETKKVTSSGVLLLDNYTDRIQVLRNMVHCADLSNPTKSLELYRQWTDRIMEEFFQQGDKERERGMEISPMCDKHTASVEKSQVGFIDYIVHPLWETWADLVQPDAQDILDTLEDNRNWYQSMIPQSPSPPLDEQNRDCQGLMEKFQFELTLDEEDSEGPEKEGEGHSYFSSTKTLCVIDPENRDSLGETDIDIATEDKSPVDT
# Chain of UniProt P11712 (P11712 whole entry, looked up): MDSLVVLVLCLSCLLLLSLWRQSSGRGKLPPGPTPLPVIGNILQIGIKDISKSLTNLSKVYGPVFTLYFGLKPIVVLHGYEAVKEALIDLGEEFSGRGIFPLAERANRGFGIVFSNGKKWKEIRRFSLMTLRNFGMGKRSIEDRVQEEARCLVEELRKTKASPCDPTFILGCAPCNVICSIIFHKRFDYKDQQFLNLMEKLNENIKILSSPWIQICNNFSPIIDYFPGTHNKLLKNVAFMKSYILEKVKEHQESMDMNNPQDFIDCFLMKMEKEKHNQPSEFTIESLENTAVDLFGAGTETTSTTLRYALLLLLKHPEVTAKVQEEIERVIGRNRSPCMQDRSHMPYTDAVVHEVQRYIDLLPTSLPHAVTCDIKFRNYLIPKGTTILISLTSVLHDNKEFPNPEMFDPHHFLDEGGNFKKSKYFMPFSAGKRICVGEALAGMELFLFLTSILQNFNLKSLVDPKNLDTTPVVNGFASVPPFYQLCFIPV
# Chain of UniProt P08684 (P08684 whole entry, looked up): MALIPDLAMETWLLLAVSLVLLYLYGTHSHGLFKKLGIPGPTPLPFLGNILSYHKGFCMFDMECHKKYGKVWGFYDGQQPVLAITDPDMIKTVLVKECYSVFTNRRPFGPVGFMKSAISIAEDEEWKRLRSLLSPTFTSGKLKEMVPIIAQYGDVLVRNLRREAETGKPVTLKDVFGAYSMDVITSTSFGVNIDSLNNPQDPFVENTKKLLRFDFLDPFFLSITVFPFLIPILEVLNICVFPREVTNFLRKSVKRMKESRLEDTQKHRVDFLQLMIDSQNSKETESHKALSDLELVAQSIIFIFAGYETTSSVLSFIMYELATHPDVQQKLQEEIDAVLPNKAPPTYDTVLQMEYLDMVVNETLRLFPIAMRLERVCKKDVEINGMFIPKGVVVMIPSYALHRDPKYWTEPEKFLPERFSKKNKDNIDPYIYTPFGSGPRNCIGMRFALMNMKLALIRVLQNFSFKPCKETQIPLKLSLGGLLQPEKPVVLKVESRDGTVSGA
# Chain of UniProt P33261 (P33261 whole entry, looked up): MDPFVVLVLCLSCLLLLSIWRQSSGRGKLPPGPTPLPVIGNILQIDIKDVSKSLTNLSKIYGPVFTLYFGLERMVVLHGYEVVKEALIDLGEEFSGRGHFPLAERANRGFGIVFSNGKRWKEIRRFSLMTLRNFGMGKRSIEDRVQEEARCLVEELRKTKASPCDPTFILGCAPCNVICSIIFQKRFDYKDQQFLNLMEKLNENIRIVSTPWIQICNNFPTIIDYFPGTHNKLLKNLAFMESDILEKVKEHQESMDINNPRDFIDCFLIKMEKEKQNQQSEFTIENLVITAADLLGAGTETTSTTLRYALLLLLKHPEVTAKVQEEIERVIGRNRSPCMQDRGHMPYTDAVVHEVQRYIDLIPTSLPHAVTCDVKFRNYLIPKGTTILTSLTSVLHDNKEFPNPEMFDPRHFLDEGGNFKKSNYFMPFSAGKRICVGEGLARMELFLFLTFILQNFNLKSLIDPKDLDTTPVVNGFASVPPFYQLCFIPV
# Chain of UniProt Q14191 (Q14191 whole entry, looked up): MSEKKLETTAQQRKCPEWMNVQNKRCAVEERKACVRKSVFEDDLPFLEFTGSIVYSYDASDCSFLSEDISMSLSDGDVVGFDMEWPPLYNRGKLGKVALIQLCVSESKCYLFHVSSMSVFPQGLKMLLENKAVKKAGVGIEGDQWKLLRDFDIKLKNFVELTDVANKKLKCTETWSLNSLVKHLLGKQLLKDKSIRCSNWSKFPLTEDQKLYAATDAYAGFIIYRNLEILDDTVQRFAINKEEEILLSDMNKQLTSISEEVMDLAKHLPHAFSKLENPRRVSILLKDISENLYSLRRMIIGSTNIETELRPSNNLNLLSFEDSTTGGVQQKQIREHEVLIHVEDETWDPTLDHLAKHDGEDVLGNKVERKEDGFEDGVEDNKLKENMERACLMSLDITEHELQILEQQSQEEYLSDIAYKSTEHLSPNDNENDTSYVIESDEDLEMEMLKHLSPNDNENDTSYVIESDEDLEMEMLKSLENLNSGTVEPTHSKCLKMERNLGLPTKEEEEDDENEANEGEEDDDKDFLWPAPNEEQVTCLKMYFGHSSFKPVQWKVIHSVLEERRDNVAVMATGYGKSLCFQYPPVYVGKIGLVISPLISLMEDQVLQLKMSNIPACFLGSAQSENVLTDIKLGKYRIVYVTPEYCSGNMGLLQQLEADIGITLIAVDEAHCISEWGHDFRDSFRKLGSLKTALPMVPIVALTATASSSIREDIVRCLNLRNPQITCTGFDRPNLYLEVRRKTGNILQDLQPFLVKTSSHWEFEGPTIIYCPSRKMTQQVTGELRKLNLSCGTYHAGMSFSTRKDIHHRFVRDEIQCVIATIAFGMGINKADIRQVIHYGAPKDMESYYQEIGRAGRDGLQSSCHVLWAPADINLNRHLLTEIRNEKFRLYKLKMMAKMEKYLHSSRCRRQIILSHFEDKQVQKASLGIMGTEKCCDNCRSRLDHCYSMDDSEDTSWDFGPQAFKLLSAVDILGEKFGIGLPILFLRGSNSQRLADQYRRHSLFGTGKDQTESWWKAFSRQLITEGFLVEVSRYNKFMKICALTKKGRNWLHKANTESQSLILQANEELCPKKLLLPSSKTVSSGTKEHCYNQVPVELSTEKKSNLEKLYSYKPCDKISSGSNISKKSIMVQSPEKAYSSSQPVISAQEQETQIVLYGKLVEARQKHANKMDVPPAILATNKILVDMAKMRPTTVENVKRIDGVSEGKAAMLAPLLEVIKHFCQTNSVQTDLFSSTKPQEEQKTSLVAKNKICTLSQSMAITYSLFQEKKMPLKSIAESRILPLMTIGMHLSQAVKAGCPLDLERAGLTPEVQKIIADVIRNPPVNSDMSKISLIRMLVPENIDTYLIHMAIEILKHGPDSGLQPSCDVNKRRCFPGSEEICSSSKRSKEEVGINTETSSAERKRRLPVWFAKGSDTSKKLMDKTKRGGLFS
# Chain of UniProt P08482 (P08482 whole entry, looked up): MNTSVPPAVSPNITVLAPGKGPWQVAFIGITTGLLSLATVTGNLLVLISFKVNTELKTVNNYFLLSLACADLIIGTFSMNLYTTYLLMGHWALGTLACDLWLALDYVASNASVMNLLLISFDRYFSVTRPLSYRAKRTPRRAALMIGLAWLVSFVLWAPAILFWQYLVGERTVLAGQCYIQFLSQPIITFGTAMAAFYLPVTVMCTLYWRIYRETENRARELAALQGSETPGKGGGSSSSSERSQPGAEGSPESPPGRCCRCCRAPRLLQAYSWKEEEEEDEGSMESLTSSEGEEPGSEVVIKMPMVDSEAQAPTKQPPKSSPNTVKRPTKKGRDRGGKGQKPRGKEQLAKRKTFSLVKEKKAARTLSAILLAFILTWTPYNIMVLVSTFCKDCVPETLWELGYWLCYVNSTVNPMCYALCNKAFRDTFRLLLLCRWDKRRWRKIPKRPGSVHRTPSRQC
smiles,measurement,setting,value
CC1(C)[C@@H]2CC[C@@](C)(C2)[C@H]1OC(=O)c1ccccc1C(=O)O,"activity change, negative = inhibition",[1],inactive: 4.7% [at 7.69 µM]
same,Potency,[2],"inconclusive: 3.16 µM [inhibitor, single point]"
same,Potency,[3],"inconclusive: 3.98 µM [inhibitor, partial curve]"
C#C[C@@]1(O)CC[C@@H]2[C@@H]3CCC4=C(CCC(=O)C4)[C@H]3CC[C@]21C,"activity change, negative = inhibition",[1],inactive: -5.71%
same,Potency,[4],active: 3.89 µM
O=C(Oc1ccccc1)N1CCC2(CCCN(c3ccc(-c4ccccc4)cc3)C2)CC1,"activity change, negative = inhibition",[1],inconclusive: -35% [inhibitor] [at 7.69 µM]
same,Potency,[5],inactive
same,activation,[6],inconclusive: -29.4%
CCN1CCC[C@@H]1CNC(=O)c1c(OC)ccc(I)c1O,"activity change, negative = inhibition",[1],inconclusive: -40.1% [inhibitor] [at 38 µM]
same,Potency,[2],inactive
CC1(C)Cc2c(c(N3CCOCC3)nc3snc(Br)c23)CO1,"activity change, negative = inhibition",[1],inactive: -26.2%
same,Potency,[6],"inconclusive: 3.98 µM [inhibitor, partial curve]"
same,Potency,[7],"inconclusive: 22.3 µM [inhibitor, partial curve]"
Cn1c(-c2ccc3c(c2)OCO3)cc(=O)c2ccccc21,"activity change, negative = inhibition",[1],inactive: -10.6%
same,Potency,[5],"inconclusive: 7.55 µM [activator, partial curve]"
same,Potency,[8],"inconclusive: 2 µM [inhibitor, partial curve, poor fit]"
same,Potency,[6],"inconclusive: 7.94 µM [inhibitor, partial curve]"
N[C@@H](CC1=CS(=O)(=O)c2ccc(Cl)cc21)C(=O)O,"activity change, negative = inhibition",[1],inconclusive: 36% [activator] [at 7.69 µM]
same,Potency,[2],"inconclusive: 6.31 µM [inhibitor, single point]"
same,Potency,[3],"inconclusive: 5.01 µM [inhibitor, partial curve]"
O=C(Nc1cccc(F)c1)N1CC2(CCN(C(=O)c3cc(C(F)(F)F)cc(C(F)(F)F)c3)CC2)C1,"activity change, negative = inhibition",[1],inconclusive: -33.8% [inhibitor] [at 7.69 µM]
same,Potency,[5],inactive
same,Potency,[6],inconclusive: 0.0013 µM [inhibitor]
CCC[C@H]1C[C@H](C(=O)N[C@H]([C@@H]2O[C@H](SC)[C@@H](O)[C@H](O)[C@@H]2O)[C@H](C)O)N(C)C1,"activity change, negative = inhibition",[1],inactive: -5.24%
same,Potency,[2],inactive
CO[C@@H]1/C=C\O[C@]2(C)Oc3c(C)c(O)c4c(O)c(c(CN5CCN(C)CC5)c(O)c4c3C2=O)NC(=O)/C(C)=C\C=C[C@@H](C)[C@@H](O)[C@H](C)[C@@H](O)[C@H](C)[C@H](OC(C)=O)[C@@H]1C,"activity change, negative = inhibition",[1],inactive: 7.34% [at 7.69 µM]
same,Potency,[2],"inconclusive: 6.31 µM [inhibitor, single point]"
Cc1nc2cnc(Oc3cccc(Cl)c3)nc2n(CCc2ccccc2)c1=O,"activity change, negative = inhibition",[1],inconclusive: -45.3% [inhibitor] [at 7.69 µM]
same,Potency,[5],"inconclusive: 5.01 µM [activator, partial curve]"
same,Potency,[8],"inconclusive: 7.94 µM [inhibitor, full curve, poor fit]"
same,activation,[6],inconclusive: -26.9%
CCCC[C@]1(C2CCCC2)Cc2cc(OCC(=O)O)c(Cl)c(Cl)c2C1=O,"activity change, negative = inhibition",[1],inactive: -21.4% [at 38 µM]
same,Potency,[5],"inconclusive: 12.6 µM [inhibitor, single point]"
same,Potency,[9],"inconclusive: 7.94 µM [inhibitor, partial curve]"
same,"activity, positive = activation",[10],inconclusive: -31% [inhibitor]
same,Potency,[11],inactive
COc1cccc(Cn2c(=O)c(-c3ccc(Cl)cc3)nc3cnc(N4CCN(C)CC4)nc32)c1,"activity change, negative = inhibition",[1],inactive: 23.1% [at 7.69 µM]
same,Potency,[5],inactive
same,activation,[6],inconclusive: 34.3%
COC(=O)N1CCC[C@@]2(CCN(C(c3ccccc3)c3ccccc3)C2)C1,"activity change, negative = inhibition",[1],inactive: -6.57% [at 7.69 µM]
same,Potency,[5],"inconclusive: 12.6 µM [rising, partial curve]"
same,Potency,[6],"inconclusive: 1.26 µM [activator, single point]"
Cc1cccc(CNc2ncncc2-c2ccccc2Cl)c1,"activity change, negative = inhibition",[1],inconclusive: -33.8% [inhibitor] [at 7.69 µM]
same,Potency,[5],"inconclusive: 10 µM [rising, single point]"
same,activation,[6],inactive: -10.3%
COc1ccc(CN(C#N)c2nc(SC)nc(N(C)C)n2)cc1,"activity change, negative = inhibition",[1],inconclusive: -34.3% [inhibitor]
same,activation,[6],inconclusive: -22.4%
same,Potency,[12],inactive
S[C@@H]1CCCN(Cc2ccccc2)C1,"activity change, negative = inhibition",[1],inactive: -16.1% [at 7.69 µM]
same,Potency,[3],"inconclusive: 3.98 µM [inhibitor, single point]"
O=C(Nc1ccc2c(c1)Cc1ccccc1-2)[C@@H]1[C@H](C(=O)O)[C@]2(Cl)C(Cl)=C(Cl)[C@@]1(Cl)C2(Cl)Cl,"activity change, negative = inhibition",[1],inconclusive: -33.1% [inhibitor] [at 7.69 µM]
same,Potency,[2],"inconclusive: 3.16 µM [inhibitor, single point]"
same,activation,[6],inconclusive: 8%

# Source: PubChem BioAssay (NCATS)
